Laboratory results as given in US11655268B2, “Nucleoside or nucleotide derivatives, and uses thereof” (ST Pharm Co., Ltd., priority 2018, dated 2023).

What was measured:
[1] = system: Influenza virus A/Puerto Rico/8/34 (H1N1); assay: Cytopathic effect reduction, influenza A H1N1 (PR8) in MDCK cells, MTT
[2] = system: Influenza virus A/HongKong/8/68 (H3N2); assay: Cytopathic effect reduction, influenza A H3N2 (Hong Kong) in MDCK cells, MTT

For `Cc1ccc(C(=O)Nc2ccn([C@@H]3O[C@H](CO)[C@@H](O)C3(F)F)c(=O)n2)nc1` [Example 10, N-(1-((2R,4R,5R)-3,3-difluoro-4-hydroxy-5-(hydroxymethyl)tetrahydrofuran-2-yl)-2-oxo-1,2-dihydropyrimidin-4-yl)-5-methylpicolinamide], the “Selectivity index FluA H1N1 (PR8)” value ([1]; CC50/EC50) was over 6.2, the EC50 ([1]; read-out: Anti-Flu activity EC50 FluA H1N1 (PR8), MDCK cells, day 3 post-infection) was 16.1 µM and the “Selectivity index FluA H3N2 (Hong Kong)” value ([2]; CC50/EC50) was over 8.8. The EC50 ([2]; read-out: Anti-Flu activity EC50 FluA H3N2 (Hong Kong), MDCK cells, day 3 post-infection) was 11.4 µM.
